Measurements from PubChem BioAssay AID1768 (National Center for Advancing Translational Sciences (NCATS), 2009).
In all, about 270,000 compounds went through this assay and about 620 (0.23%) were called active. The inconclusive results got no clear call from the source; some entries with a clear call stand among them for comparison. Calls follow the shape of the dose curve; as a rule, active = well fitted inhibition curve with a large enough effect in the polarisation, with a control signal flat (not every such curve was filed as active); inconclusive = small, poorly fitted or top-dose-only effect, or effect the other way, or a change in a side signal; inactive = no such curve, though single readings can be large or run the other way; the % refers to the polarisation. A potency beside an inconclusive call is a rough fit, not a confirmed value. “Side channel” marks fits to a control or component signal instead of the main read-out.

Target: Menin (Homo sapiens) (UniProt O00255)
Sequence of UniProt O00255 (O00255 whole entry, looked up): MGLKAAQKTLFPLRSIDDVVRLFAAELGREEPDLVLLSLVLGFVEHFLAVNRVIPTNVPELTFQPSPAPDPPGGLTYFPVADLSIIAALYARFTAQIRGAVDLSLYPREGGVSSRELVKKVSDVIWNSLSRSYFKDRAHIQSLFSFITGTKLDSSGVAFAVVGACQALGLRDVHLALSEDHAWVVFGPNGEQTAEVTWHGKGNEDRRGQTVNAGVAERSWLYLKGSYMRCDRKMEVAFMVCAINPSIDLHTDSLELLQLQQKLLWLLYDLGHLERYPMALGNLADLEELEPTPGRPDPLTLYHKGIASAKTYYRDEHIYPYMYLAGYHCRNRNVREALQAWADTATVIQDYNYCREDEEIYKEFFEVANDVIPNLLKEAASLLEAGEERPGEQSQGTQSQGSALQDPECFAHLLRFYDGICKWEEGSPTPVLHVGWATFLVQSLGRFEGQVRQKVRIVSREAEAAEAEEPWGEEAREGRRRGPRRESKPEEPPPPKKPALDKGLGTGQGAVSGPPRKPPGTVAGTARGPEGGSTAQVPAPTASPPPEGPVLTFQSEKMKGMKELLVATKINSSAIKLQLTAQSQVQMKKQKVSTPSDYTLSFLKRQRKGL
Experiment: qHTS Assay for Inhibitors Targeting the Menin-MLL Interaction in MLL Related Leukemias: Competition With Texas Red Labeled MLL-derived Mutant Peptide; as to FP activity change, negative = inhibition: % of control where 0% means no effect
Settings: fluorescence polarization; FP activity change, negative = inhibition: at 61.6 µM (top of the series)
Potency is read from the fitted curve at half-maximal effect; tags tell the direction and shape of the fitted curve or compound fluorescence and quenching.

Row | SMILES | Potency | FP activity change, negative = inhibition
1 | CSCC[C@H](NC(=O)OC(C)(C)C)C(=O)N1CCC(C(=O)N[C@@H](Cc2c[nH]c3ccccc23)C(=O)O)CC1 | inconclusive: 39.8 µM [inhibitor, single point] | –
2 | Cc1ccc(C(=O)N2CC3(C(C)C)CN(C(=O)c4ccc(C)cc4)CC(C(C)C)(C2)C3=O)cc1 | inconclusive: 7.94 µM [fluorescent, side channel, full curve, poor fit] | –
3 | Cc1cc(C)c2ccc(=S)[nH]c2n1 | inconclusive: 17.8 µM [fluorescent, side channel, partial curve] | –
4 | COc1ccc(C(CNC(=S)NCc2ccccc2)N2CCCC2)cc1 (stereo not given) | inconclusive: 39.8 µM [inhibitor, partial curve] | –
5 | CCc1nnc(NS(=O)(=O)c2ccc(NC(=O)/C=C/c3ccccc3Cl)cc2)s1 | inconclusive: 11.2 µM [quencher, side channel, partial curve] | –
6 | Nc1ccc(N2CCCCCC2)cc1 | inconclusive: 12.6 µM [inhibitor, partial curve] | –
7 | CC1(C)C(=O)Nc2ccccc2N1C(=O)COC(=O)C1CCCCC1 | – | inactive: -1.42%
8 | COc1cccc(-c2nn(-c3ccccc3)cc2C(=O)Nc2nccs2)c1 | inconclusive: 3.55 µM [quencher, side channel, full curve] | –
9 | COc1cc(OC)c(NC(=O)CCCNC(=O)Cn2cnc3sc(C)c(C)c3c2=O)cc1Cl | inconclusive: 39.8 µM [fluorescent, side channel, single point] | –
10 | COC(=O)COc1ccc2c(=O)c(Oc3ccccc3Br)coc2c1 | inconclusive: 0.708 µM [inhibitor, full curve, poor fit] | –
11 | CCCCN(C)S(=O)(=O)c1ccc(C(=O)Nc2nnc(-c3cccs3)o2)cc1 | inconclusive: 17.8 µM [quencher, side channel, partial curve] | –
12 | CCOC(=O)CN1C(=O)S/C(=C/c2ccc(O)c([N+](=O)[O-])c2)C1=O | inconclusive: 15.8 µM [quencher, side channel, single point] | –
13 | COc1ccc2c(c1)C(=O)N(c1ccc(C)cc1C)C(=O)C2(C)C | inconclusive: 39.8 µM [fluorescent, side channel, partial curve, poor fit] | –
14 | O=C1C2C3C=CC(C3)C2C(=O)N1CCCCCCN1C(=O)C2C3C=CC(C3)C2C1=O (stereo not given) | inconclusive: 28.2 µM [quencher, side channel, single point] | –
15 | O=C(NC(=S)Nc1cccc2cc(O)ccc12)c1ccco1 | inconclusive: 25.1 µM [quencher, side channel, partial curve] | –
